Measurements as given in the supplement of paper PMC8728848.
The list shows a part of the results.

Assays:
Test in all cases: glycan array binding signal (z-score within array); higher = stronger binding
Details in all cases: glycan notation: IUPAC condensed, linker removed
[1] = biological target: Gal3S(b1-3)[Fuc(a1-4)]GlcNAc
Procedure, shortened: (§1)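 The binding signal is a Z-score computed within each array. Data were drawn from 3228 arrays in the Consortium for Functional Glycomics database, restricted to those with a known protein sequence. Scores were averaged over arrays of the same protein sequence at different concentrations or buffers, and over linkers, and negative values can be taken as non-binding.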

Gal3S(b1-4)Glc = biological target: Gal3S(b1-4)Glc
Procedure, shortened: as §1

Gal3S(b1-4)Glc6S = biological target: Gal3S(b1-4)Glc6S
Procedure, shortened: as §1

Gal3S(b1-4)GlcNAc = biological target: Gal3S(b1-4)GlcNAc
Procedure, shortened: as §1

[2] = biological target: Gal3S(b1-4)[Fuc(a1-3)]Glc6S
Procedure, shortened: as §1

[3] = biological target: Gal3S(b1-4)[Fuc(a1-3)]GlcNAc
Procedure, shortened: as §1

[4] = biological target: Gal3S(b1-4)[Fuc(a1-3)]GlcNAc6S
Procedure, shortened: as §1

Gal3S4S(b1-4)GlcNAc = biological target: Gal3S4S(b1-4)GlcNAc
Procedure, shortened: as §1

Gal3S6S(b1-4)GlcNAc = biological target: Gal3S6S(b1-4)GlcNAc
Procedure, shortened: as §1

Gal3S6S(b1-4)GlcNAc6S = biological target: Gal3S6S(b1-4)GlcNAc6S
Procedure, shortened: as §1

Gal4S(b1-4)GlcNAc = biological target: Gal4S(b1-4)GlcNAc
Procedure, shortened: as §1

Gal4S6S(b1-4)GlcNAc = biological target: Gal4S6S(b1-4)GlcNAc
Procedure, shortened: as §1

Gal6P(b1-4)GlcNAc = biological target: Gal6P(b1-4)GlcNAc
Procedure, shortened: as §1

Gal6S(b1-3)GlcNAc = biological target: Gal6S(b1-3)GlcNAc
Procedure, shortened: as §1

Gal6S(b1-3)GlcNAc6S = biological target: Gal6S(b1-3)GlcNAc6S
Procedure, shortened: as §1

Gal6S(b1-4)Glc = biological target: Gal6S(b1-4)Glc
Procedure, shortened: as §1

Gal6S(b1-4)Glc6S = biological target: Gal6S(b1-4)Glc6S
Procedure, shortened: as §1

Gal6S(b1-4)GlcNAc = biological target: Gal6S(b1-4)GlcNAc
Procedure, shortened: as §1

Gal6S(b1-4)GlcNAc6S = biological target: Gal6S(b1-4)GlcNAc6S
Procedure, shortened: as §1

GalNAc(a1-3)Gal = biological target: GalNAc(a1-3)Gal
Procedure, shortened: as §1

GalNAc(a1-3)GalNAc = biological target: GalNAc(a1-3)GalNAc
Procedure, shortened: as §1

[5] = biological target: GalNAc(a1-3)GalNAc(b1-3)Gal(a1-4)Gal(b1-4)Glc
Procedure, shortened: as §1

[6] = biological target: GalNAc(a1-3)GalNAc(b1-3)Gal(a1-4)Gal(b1-4)GlcNAc
Procedure, shortened: as §1

GalNAc(b1-3)Gal = biological target: GalNAc(b1-3)Gal
Procedure, shortened: as §1

[7] = biological target: GalNAc(b1-3)Gal(a1-4)Gal(b1-4)GlcNAc
Procedure, shortened: as §1

[8] = biological target: GalNAc(b1-3)Gal(a1-4)Gal(b1-4)GlcNAc(b1-3)Gal(b1-4)Glc
Procedure, shortened: as §1

[9] = biological target: GalNAc(b1-3)Gal(a1-6)Gal(b1-4)Glc
Procedure, shortened: as §1

GalNAc(b1-3)GalNAc = biological target: GalNAc(b1-3)GalNAc
Procedure, shortened: as §1

GalNAc(b1-3)GlcNAc = biological target: GalNAc(b1-3)GlcNAc
Procedure, shortened: as §1

GalNAc(b1-4)Gal(b1-4)Glc = biological target: GalNAc(b1-4)Gal(b1-4)Glc
Procedure, shortened: as §1

GalNAc(b1-4)GlcNAc = biological target: GalNAc(b1-4)GlcNAc
Procedure, shortened: as §1

[10] = biological target: GalNAc(b1-4)GlcNAc(b1-2)Man
Procedure, shortened: as §1

[11] = biological target: GalNAc(b1-4)GlcNAc(b1-2)Man(a1-3)[GalNAc(b1-4)GlcNAc(b1-2)Man(a1-6)]Man(b1-4)GlcNAc(b1-4)GlcNAc
Procedure, shortened: as §1

[12] = biological target: GalNAc(b1-4)GlcNAc(b1-3)GalNAc(b1-4)GlcNAc
Procedure, shortened: as §1

GalNAc(b1-4)GlcNAc6S = biological target: GalNAc(b1-4)GlcNAc6S
Procedure, shortened: as §1

GalNAc(b1-6)GalNAc = biological target: GalNAc(b1-6)GalNAc
Procedure, shortened: as §1

GalNAc3S(b1-4)GlcNAc = biological target: GalNAc3S(b1-4)GlcNAc
Procedure, shortened: as §1

GalNAc3S(b1-4)GlcNAc3S = biological target: GalNAc3S(b1-4)GlcNAc3S
Procedure, shortened: as §1

[13] = biological target: GalNAc3S(b1-4)[Fuc(a1-3)]GlcNAc
Procedure, shortened: as §1

GalNAc4S6S(b1-4)GlcNAc = biological target: GalNAc4S6S(b1-4)GlcNAc
Procedure, shortened: as §1

GalNAc6S(b1-4)GlcNAc = biological target: GalNAc6S(b1-4)GlcNAc
Procedure, shortened: as §1

Glc(a1-4)Glc = biological target: Glc(a1-4)Glc
Procedure, shortened: as §1

[14] = biological target: Glc(a1-4)Glc(a1-4)Glc(a1-4)Glc
Procedure, shortened: as §1

Glc(a1-6)Glc(a1-6)Glc = biological target: Glc(a1-6)Glc(a1-6)Glc
Procedure, shortened: as §1

[15] = biological target: Glc(a1-6)Glc(a1-6)Glc(a1-6)Glc
Procedure, shortened: as §1

B1: InvD YPIII (Yersinia pseudotuberculosis), B1JSC0 (protein)
chain: MIKYFSFFKKPEPIVGILPNRQSHHILPTHIRRVAWGTLLLQLFIPLSVSFSPAIAAMKASKADTMVSYSSTEPYVLGSGETVAMVAKKYGITVDELKKINIYRTFSRPFTALTTGDEIDIPRKASPFSVDNNKDNRLSVENTLAGHAVAGATALSNGDVAKSGERMVRSAASNEFNNSAQQWLSQFGTARVQLNINDDFHLDGSAADVLIPLYDNEKSILFTQLGARNKDSRNTVNMGAGVRTFQGNWMYGANTFFDNDLTGKNRRIGVGAEAWTDYLKLSANNYFGITDWHQSRDFIDYNERPANGYDLRAEAYLPSYPQLGGKAMYEKYRGDDVALFGKDNRQKNPHAITAGVNYTPIPLVTIGAEHRAGKGGQNDSNINFQLNYRLGETWQSHIDPSAVAASRTLAGSRYDLVERNNHIVLDYQKQNLVRLSLPDSLAGDPFSQLSVTAQVTATHGLERIDWQSAELMAAGGVLKQTSKNGLEITLPEYQMNRTGGNSYILNAIAYDTQGNASSQASMLITVNAQKINIANSTLVAVPINIEANNSDTSVVTLTLKDDNNIPVTGQDVTFLSPLGTLSAMTDSGNGVYTATLTAGTVSGTTAVSSNINGSALDMTPATVTLNGNSGELSITHSMLVAAPVNIEANGSDTSVVTLTLRDSNNNPVTGQTVTFAGTLGTLGAVTEGSSGVYTATLTAGIMVGTSSITASVNSTALGVTPATVTLNGDSGNLSTTNSTLVAAPVNIEANSSDTSVVTLTLRDNNNNPVTGQTVVFTSTLGTLGNVTEQASGVYTATLTAGTVSGVASLSVSVGGNALGVTPATVTLNGDSGNLSTTNSTLVAAPVNIEANSSDTSVVTLTLRDNNNNPVTGQTVNFAGTLGTLGTVSEGSSGVYTTTLTAGTVAGVASLSVNVGGNALGVTPATVTLNGNSGNLSATNSTLVAAPVNIEANSSDTSVVTLTLRDNNNNPVTGQTVAFTSTLGTLGNVTEQASGVYTATLTAGTVSGVASLSVSVNSNALGVTPATVTLNGDSGNLSTTNSTLVAAPVNIEANSSDTSVVTLTLRDNNNNPVTGQTVAFTSTLGTLGNVTEQASGLYTATLTAGTVSGVASLSVNVGGNALGVTPATVTLNGDSGNLSATNSTLVAAPVNIEANSSDTSVVTLTLRDNNNNPVTGQTVAFTSTLGTLGNVTEQASGLYTATLTAGTVSGVASLSVNVGGTALGVTPATVTLNGDSGNLSTTNSTLVAAPVNIEANSSDTSVVTLTLRDNNNNPVTGQTVAFTSTLGTLGNVTEQASGLYTATLTAGTVSGVASLSVSVNSTALGVTPATVTLNGDSGNLSTTNSTLVAAPVNIEANSSDTSVVTLTLRDNNNNPVTGQTVAFTSTLGTLGNVTEQASGVYTATLTAGTVAGVASLSVNVGGNALGVTPATVTLNGDSGNLSTTNSTLVAAPVNIEANSSDTSVVTLTLRDNNNNPVTGQTVAFTSTLGTLGNVTEQASGVYTATLTAGTVSGVASLSVSVGSSALGVTPATVTLNGDSGNLSTTNSTLVAAPVNIEANNSDTSVVTLTLRDNNNNPVTGQTVAFTSTLGTLGNVTEQASGVYTATLTAGTVSGVASLSVSVNSNALGVTPATVTLNGDSGNLSTTNSTLVAAPVNIEANSSDTSVVTLTLRDNNNNPVTGQTVVFTSTLGTLGNVTEQASGLYTATLTAGTVSGVASLSVSVGGNALGVTGNITLAPGALDAARSILAVNKPSINADDRIGSTITFTAQDAQGNAITGLDIAFMTDLENSQIMTLVDHNDGTYTANINGTQTGIANIAVQSSGATIAGLAATMVTITPGAWNTTQATPVMTVALPITTCQSSSGVYKRYYIGIVTHELYDNYGNEISGILTYNLGAGRYTTVTSQNSSVSGSNGLTRRSNSPVSHFILTSDAYTSQAACYAERIANVNVTITVTAITDDFKTSAVNKVFILGTGSN
- glycan array binding signal (z-score) [1]: -0.381
- glycan array binding signal (z-score) (Gal3S(b1-4)Glc): -0.329
- glycan array binding signal (z-score) (Gal3S(b1-4)Glc6S): -0.169
- glycan array binding signal (z-score) (Gal3S(b1-4)GlcNAc): -0.195
- glycan array binding signal (z-score) [2]: -0.047
- glycan array binding signal (z-score) [3]: -0.412
- glycan array binding signal (z-score) [4]: 0.06
- glycan array binding signal (z-score) (Gal3S4S(b1-4)GlcNAc): -0.009
- glycan array binding signal (z-score) (Gal3S6S(b1-4)GlcNAc): 0.187
- glycan array binding signal (z-score) (Gal3S6S(b1-4)GlcNAc6S): -0.084
- glycan array binding signal (z-score) (Gal4S(b1-4)GlcNAc): 0.329
- glycan array binding signal (z-score) (Gal4S6S(b1-4)GlcNAc): -0.133
- glycan array binding signal (z-score) (Gal6P(b1-4)GlcNAc): -0.37
- glycan array binding signal (z-score) (Gal6S(b1-3)GlcNAc): -0.189
- glycan array binding signal (z-score) (Gal6S(b1-3)GlcNAc6S): -0.046
- glycan array binding signal (z-score) (Gal6S(b1-4)Glc): -0.243
- glycan array binding signal (z-score) (Gal6S(b1-4)Glc6S): 0.543
- glycan array binding signal (z-score) (Gal6S(b1-4)GlcNAc): -0.467
- glycan array binding signal (z-score) (Gal6S(b1-4)GlcNAc6S): -0.131
- glycan array binding signal (z-score) (GalNAc(a1-3)Gal): -0.135
- glycan array binding signal (z-score) (GalNAc(a1-3)GalNAc): -0.275
- glycan array binding signal (z-score) [5]: -0.352
- glycan array binding signal (z-score) [6]: -0.134
- glycan array binding signal (z-score) (GalNAc(b1-3)Gal): 0.098
- glycan array binding signal (z-score) [7]: -0.259
- glycan array binding signal (z-score) [8]: -0.125
- glycan array binding signal (z-score) [9]: -0.316
- glycan array binding signal (z-score) (GalNAc(b1-3)GalNAc): -0.226
- glycan array binding signal (z-score) (GalNAc(b1-3)GlcNAc): -0.286
- glycan array binding signal (z-score) (GalNAc(b1-4)Gal(b1-4)Glc): 0.025
- glycan array binding signal (z-score) (GalNAc(b1-4)GlcNAc): 0.01
- glycan array binding signal (z-score) [10]: -0.243
- glycan array binding signal (z-score) [11]: -0.078
- glycan array binding signal (z-score) [12]: 0.272
- glycan array binding signal (z-score) (GalNAc(b1-4)GlcNAc6S): 0.354
- glycan array binding signal (z-score) (GalNAc(b1-6)GalNAc): -0.011
- glycan array binding signal (z-score) (GalNAc3S(b1-4)GlcNAc): 0.02
- glycan array binding signal (z-score) (GalNAc3S(b1-4)GlcNAc3S): 1.04
- glycan array binding signal (z-score) [13]: -0.139
- glycan array binding signal (z-score) (GalNAc4S6S(b1-4)GlcNAc): 0.048
- glycan array binding signal (z-score) (GalNAc6S(b1-4)GlcNAc): -0.302
- glycan array binding signal (z-score) (Glc(a1-4)Glc): -0.36
- glycan array binding signal (z-score) [14]: -0.206
- glycan array binding signal (z-score) (Glc(a1-6)Glc(a1-6)Glc): -0.313
- glycan array binding signal (z-score) [15]: -0.312
